This is an account of results in the supplement of paper PMC11417369.

The list shows a part of the results.

This assay has as its system PfSIP2 AP2 domain 1 (GST-tagged). Nature of the assay: gcPBM binding intensity (ln(normalized median fluorescence intensity)); higher = stronger DNA binding. A digest of the protocol:
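GST-tagged P. falciparum DNA-binding domains produced in E. coli were incubated for 1 h on an Agilent 4 × 180k array of primer-extended double-stranded 36-bp intergenic genomic probes with negative controls. Binding intensity is the highest Masliner-normalised natural-log median intensity across replicate spots of either probe orientation, with bound protein detected by Alexa488 anti-GST antibody at 488 nm.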
For the sequence “TTTCCCTAATGAAAGTGTACCTGTGAGAAAAAAAAG [XGTACX_site194]”, the “gcPBM binding intensity (ln)” value was 7.19. For “TTGTAATTATTAAACACACACAAAATATCTAGAATA [CACACA_site7231]” the value was 6.86; for “ATTTTTTTTTGTGTATATAAATAAATAAATATATAT [GTGCAC_negctrl_site603]”, 7.09.

“ATTTAGATTAACACTTGTACATAATACATACAAATA [XGTACX_site4147]”: the “gcPBM binding intensity (ln)” value was determined as 7.04. For “AAAAGAAAAGAGAGGAGTACAAAATATAATTATCTA [XGTACX_site5172]” the value was 7.22. For “TGTATATATTAATGTACACACATGCGTATGTTCGTT [CACACA_site3583]” the value was 7; for TTATTTATTTATATAGTGCAATAAACACATAAATAG, 8; for “AAAAAAAAAAAAAGAACACACACAGTGCACATTCGG [CACACA_site8163]”, 10.6. As for “CATATTGGTATGCTCATGCACTTTTATTTTGTTATT [GTGCAC_site9553]”, the “gcPBM binding intensity (ln)” value was 7.66. For “TATAAAAAGCAAAACAAAAAAACAAATTGAAAAATT [TGCATGCA_negctrl_site158]” the value was 6.64; for “TATAAATAATAAAGATGTACTTTTTATGATTCCTAC [XGTACX_site7003]”, 7.05. On to “TTTTTTATTTTTTTATTGTTTTATTGTTTCATTGTT [XGTACX_negctrl_site128]”, for which the “gcPBM binding intensity (ln)” value is 6.91. The figure for “CCGTAGTTTTAAAATAGTACTTTTATGGTTAATAAA [XGTACX_site3162]” is 6.93.

In the case of “TTACTACTATATTATACACACATATATTTATTTATA [CACACA_site7274]”, the “gcPBM binding intensity (ln)” value came out at 7.12.

Regarding “TTGTTTCTCTTTAAAAGTACAAAAATGGTTACATAT [XGTACX_site3109]”, the “gcPBM binding intensity (ln)” value worked out at 7.1. Take “TAGATTTTTTAATGTTGTACAAATATACGATATATA [XGTACX_site3258]”: the “gcPBM binding intensity (ln)” value was 7.31. As for “ACATCAAGCAGACACACACACACACGCACACGCACA [CACACA_site6309]”, the “gcPBM binding intensity (ln)” value came to 8.4. The figure for “ACTATTCATGCATATACACACACATATATATATATT [CACACA_site9309]” is 7.73. For “ACTTTAAACAAAAAAAGTACTCTTTAATGAATATAT [XGTACX_site7176]” the value was 6.93; for “TATATATATATATATATATATATATATATATGTTGT [TGCATGCA_negctrl_site24]”, 8.99. For “CAATATTTTATTTAAGCATGCTCTAGGGTGTAAAAG [TGCATGCA_site1001]” the value was 7.01; for “CAATTTCTCTTAATTTGTACATATATGTTATACAAA [XGTACX_site3231]”, 7.14. With “AAATATATATAAAAGTGTACATTTGTTATAATCAGT [XGTACX_site4822]”, the “gcPBM binding intensity (ln)” value came to 7.28. For “TTATATATTTCTACTCATATTACAATGTGAGAAATA [CACACA_negctrl_site873]” the value was 6.95.

On to “AACATTAAAAGGGATACACACATATAAATAAATAAT [CACACA_site489]”, for which the “gcPBM binding intensity (ln)” value came out at 7.03. For CTCAACAAAATATGAGTGCATTGTTATTACATATAT the value was 9.15; for “TAGATATATAATTTTTGTACGTAGTCGAATCTCAGA [XGTACX_site765]”, 6.76; for “CCAACTAAAAAGGAATGTACATAGTTATGGTTGGAA [XGTACX_site8762]”, 6.89.

Take “ATCAAAAAAAAAAAAAGTACACAAAATTTTTTATTA [XGTACX_site7986]”: the “gcPBM binding intensity (ln)” value is 6.88.

As for “TATATGTGTGTTATATGTACTTATATATATATATAT [XGTACX_site5570]”, the “gcPBM binding intensity (ln)” value was found to be 9.06.

On to ATAATGAACAAAGTAGTGCACTTTCCTTATCTTTTC, for which the “gcPBM binding intensity (ln)” value turned out to be 10.9. The figure for “AAGGTTTAAAATTACTGTACAAATATAAATAAATAT [XGTACX_site3756]” is 6.93. As to “TACATATTTAAATACTGTACTCAAAAGAATTGTGCA [XGTACX_site2250]”, the “gcPBM binding intensity (ln)” value is 7.13.

In the case of “ACTAATATGTATATATATATATATATATATATATAT [CACACA_negctrl_site141]”, the “gcPBM binding intensity (ln)” value amounted to 9.31.

Take “TATAGTATTCTAAATGCATGTAAATTATGTATATAT [TGCATGCA_site931]”: the “gcPBM binding intensity (ln)” value is 7.09. Regarding “AAATTCCACGAACACACACACATATAAATAAATAAA [CACACA_site6697]”, the “gcPBM binding intensity (ln)” value is 7.1. Turning to “TAGTAAAAACCAAAATGTACATGTGCCATTTTTTTA [XGTACX_site2630]”, the “gcPBM binding intensity (ln)” value amounted to 6.68. The figure for “TATATTATACTAAGAAGTACAATATTTTTATTGTAA [XGTACX_site2810]” is 7.03; for “GTTTATCACAGCCACGCACACATAATATCTGTATAT [CACACA_site5929]” it is 7.36. For “CTTATATTGTACAGTACACACCTTTATAATGTTATT [CACACA_site4280]” the value was 7.26; for “GATTATTAATAGTAACGTACATATGTTATAAAATAT [XGTACX_site5277]”, 7.18.

Regarding “ATGAATCCTTAATATGAACACACAAATATATTACAC [CACACA_site7943]”, the “gcPBM binding intensity (ln)” value was 7.08. For “TTTTTTATTTATCCTATATATTACTAAATGAAGAAC [GTGCAC_negctrl_site333]”, the “gcPBM binding intensity (ln)” value was 7.46.

“TTATTTCAAAGTAAATCAGTAAATATTTGTTTTCTT [CACACA_negctrl_site1572]”: the “gcPBM binding intensity (ln)” value stood at 6.58. As for “TCCTTATTTATATAATGTACTTTTTTTTTTCATTTT [XGTACX_site4275]”, the “gcPBM binding intensity (ln)” value came out at 6.92.

“TACAAGTATAAATAAGCACACATGTGGATATGTACA [CACACA_site4229]”: the “gcPBM binding intensity (ln)” value was found to be 6.91. For “AAAATATAAAATAATGCACACATAAACAAAAAATCA [CACACA_site8382]” the value was 7.33; for “GATAAAATAGGACCATATTCTTTAAAACGATAAAAT [XGTACX_negctrl_site405]”, 6.92. For “ATATATATATATTTATGTACATATACATAATGTATA [XGTACX_site6387]” the value was 8.91. In the case of “TAAAGTTAAAAATTATGTACATATATATTGTATATT [XGTACX_site5528]”, the “gcPBM binding intensity (ln)” value was found to be 7.03. For “TTATTTTATATATCACGTACATAGTTGTCTTCTTTT [XGTACX_site2906]” the value was 7.02. Take “TAAGAAGTATTTTCCTGTACATATTTTATATGTATG [XGTACX_site4658]”: the “gcPBM binding intensity (ln)” value is 6.68. For “TGTTCTATTCTATTATTATTTACAAATTATAAATAA [GTGCAC_negctrl_site232]” the value was 7.24; for “TATATATATTAGTGTGCACACTTTTTATTTTTATCC [CACACA_site8506]”, 8.6; for “ATATATTTATAATAGGTGCATATGTTTTATTTTTCC [GTGCAC_site9849]”, 10.2. The figure for “AGATATGTTTTTAATTGTACATAAATACACAAATAT [XGTACX_site5981]” is 6.97; for “TGTAATAAATAGTACACACACACATATATATATATT [CACACA_site1388]” it is 7.23; for “ATATGTGTGTGTATTTGTACCCAATTTTTATATATA [XGTACX_site4948]” it is 7.44. For “AAAAAAAAAAAAAAAAAAAAAATACATATATATATA [CACACA_negctrl_site290]” the value was 9.02; for AAAGAATTATATAAGGTGCACGAATGTTTCTTTAAT, 10.9.

As to “TATAAATATATTTATACACACATTAGTGTATACATG [CACACA_site7397]”, the “gcPBM binding intensity (ln)” value was found to be 7.02. The figure for “AGGTGAAAAATATATAATAATGTAACAAAAAAAAAT [XGTACX_negctrl_site394]” is 6.89; for “TCGTGTTAAATTTTTACACACAAACTTGCAATAATT [CACACA_site3824]” it is 7.05.

Consider “AACTATAACTAAAAAAATCACATAAAATATTTTATT [TGCATGCA_negctrl_site363]”, for which the “gcPBM binding intensity (ln)” value was found to be 6.72. For “AACAATAAAAATAATTGTACAAGTTTAAAAAAAATT [XGTACX_site1987]” the value was 6.74; for “TCTTTAAATTTCTCAACACACAGTTATAAAAAATAA [CACACA_site2856]”, 7.04. For “TATATCTTATTTAACACACACAAAGAAAATAGAAAA [CACACA_site3732]” the value was 7.1; for “ATATTTTTTTTTGTTAGTACTCATATTTGTAGTTTT [XGTACX_site7280]”, 7.06; for “CATTTAAGACAAATTACACACGTATGCCAAATATAT [CACACA_site431]”, 7.17.

As to TTTTTAATTTCAATGGTGCAGTAATAATATAATAGT, the “gcPBM binding intensity (ln)” value worked out at 10.5. For “AATATATATAATTATAGTACAGAAAATTAAAAAAGA [XGTACX_site2943]” the value was 7.16; for “AAAAAGCAGGATTATACACACAAATATTTATATGTT [CACACA_site6634]”, 6.65; for “GCGTAGTTCGGAAGGGTGCTTTTTTGTTAATAAAAA [GTGCAC_site9592]”, 9.07. On to “TTATGTTATAAATACACACACAAAAGAAAAAAAAAA [CACACA_site7414]”, for which the “gcPBM binding intensity (ln)” value was determined as 7.01.

“TCCCATAATATTAGTAGTACTATTAATATTTTCAGG [XGTACX_site4925]”: the “gcPBM binding intensity (ln)” value came to 6.99.

On to “ATTTCTTTTTTTTCTTGTACACATATTAAATTTATG [XGTACX_site734]”, for which the “gcPBM binding intensity (ln)” value worked out at 7.19. For “TTCTCTATAAATGCTGCACACACATTTAATTATTTA [CACACA_site8828]” the value was 7.22. On to “TCTAAACAAATTAATAAAATAAGTATTCAAAATTAT [CACACA_negctrl_site731]”, for which the “gcPBM binding intensity (ln)” value stood at 6.73. For “GTAAAATTTCGGATTTGTACACATGGCTATGAAAAA [XGTACX_site939]”, the “gcPBM binding intensity (ln)” value came to 6.96. For “AATATTTATTTTTTTGCACACATATTTTACATTTTA [CACACA_site3182]” the value was 7.39; for “ATTCTAATTACATATACACACAAAGGTTCATAACAA [CACACA_site3076]”, 7.33; for “TATATAAATGTATACACACACATATAAATATAAATA [CACACA_site6751]”, 7.05.

For “TAACTACTAGAAAAAACACACAAAAAGTAAATATAT [CACACA_site2740]”, the “gcPBM binding intensity (ln)” value came out at 6.95. For “TTCCCATGTAATATTAAACACACACCCATATAACAC [CACACA_site7905]” the value was 7.78; for “TAAAATATAAGACACACACACATATATTTATATATC [CACACA_site6248]”, 7.05; for “TACCAAATCACCCCTTGTACCCATTTTAAAATTTTC [XGTACX_site396]”, 7.22.

Regarding “TGTTTAACATTTATATGTACATATATTCACATATTA [XGTACX_site342]”, the “gcPBM binding intensity (ln)” value was determined as 6.99.

As to “TGATTTTTTTTTTTTTTTTTTTTTTTTTTAGTTTGC [CACACA_negctrl_site1057]”, the “gcPBM binding intensity (ln)” value amounted to 7.08. The figure for “ATAAACAGATCATATACATGCATATATGTAGAATAA [TGCATGCA_site157]” is 6.88.
